Reference: PubChem BioAssay AID485344 (National Center for Advancing Translational Sciences (NCATS), 2010)
In all, about 340,000 compounds went through this assay and about 6,900 (2%) were called active. No stated cut-off is given here; in the data, active means inhibition above about 30%; inactive means below that, where a call was filed. The entries are a selection whose mix differs from that of the whole data set. The source gives no active or inactive call for entries shown without one.

Target: D(2) dopamine receptor (Homo sapiens) (UniProt P14416)
UniProt P14416, sequence (P14416 whole entry, looked up): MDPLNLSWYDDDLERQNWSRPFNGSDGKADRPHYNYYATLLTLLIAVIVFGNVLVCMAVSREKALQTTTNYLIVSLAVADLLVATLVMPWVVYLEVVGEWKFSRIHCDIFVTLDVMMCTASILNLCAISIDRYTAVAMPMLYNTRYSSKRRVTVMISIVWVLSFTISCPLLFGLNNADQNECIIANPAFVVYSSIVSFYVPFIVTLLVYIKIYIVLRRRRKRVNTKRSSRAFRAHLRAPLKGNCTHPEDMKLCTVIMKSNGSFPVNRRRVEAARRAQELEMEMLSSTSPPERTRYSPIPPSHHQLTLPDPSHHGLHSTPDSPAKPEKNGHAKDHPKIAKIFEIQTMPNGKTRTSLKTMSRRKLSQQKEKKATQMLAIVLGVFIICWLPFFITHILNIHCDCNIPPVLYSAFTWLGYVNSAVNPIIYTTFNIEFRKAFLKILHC
Test: HTS Assay for Allosteric Antagonists of the Human D2 Dopamine Receptor: Primary Screen for Antagonists; further: 0% is about no effect
Settings: HEK293 TREx D2 cells, calcium flux, dopamine EC80; at 10 µM; stronger effect = higher value
Procedure, shortened: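 Inhibition of EC80 dopamine-driven calcium flux, recorded kinetically, defines activity here; cells are a tetracycline-induced HEK293 T-REx line expressing force-coupled D2.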

Structure (SMILES) | inhibition
COc1ccc(CNC(=O)Cc2coc3ccc(C(C)C)cc23)cc1 | 20.9%
CCOc1ccccc1CNC(=O)CSc1n[nH]c(-c2ccccc2Cl)n1 | -4.24%
O=C(CN1C(=O)COc2ccc(S(=O)(=O)N3CCCCC3)cc21)NCc1ccccc1Cl | -3.08%
Cc1cc(Nc2cc(Cl)ccc2C)n2nc(Cc3ccccc3)nc2n1 | -11.5%
CCOC(=O)C1CCCN(C(=O)c2ccc3c(c2)N(Cc2cccc(Cl)c2)C(=O)c2ccccc2S3(=O)=O)C1 (stereo not drawn) | 0.196%
CCCN(C(=O)Cn1c(=O)oc2cc(Cl)ccc21)c1ccc(C(C)C)cc1 | -0.671%
CCC1CCc2c(sc(NC(=O)C3c4ccccc4Oc4ccccc43)c2C#N)C1 (stereo not drawn) | -17.3%
CC(C)c1ccc(NC(=O)CN2C(=O)c3cccc4cccc2c34)cc1 | -4.4%
CCCCOc1ccc(Cc2c(COCC)[nH]c(=S)[nH]c2=O)cc1 | active: 35.5%
CCc1ccc(NC(=O)COc2cccc(-n3cnnn3)c2)cc1 | active: 36.9%
CCc1ccc(S(=O)(=O)c2cn(C)c3cc(OC)c(OC)cc3c2=O)cc1 | -1.42%
CCOc1cccc(C2c3[nH]c4ccccc4c3CCN2C(=O)CCc2ccccc2)c1 (stereo not drawn) | -4.17%
O=C(NCc1noc2ccccc12)Nc1ccc(F)cc1F | 1.65%
CCOC(=O)c1nc(Nc2ccccc2C)c2ccccc2n1 | 25.7%
Cc1cc(NC(=O)CCc2ccc(-c3ccccc3)o2)no1 | active: 32.5%
CCN(CC)S(=O)(=O)c1ccc2nc(NC(=O)c3ccc(Br)o3)sc2c1 | -14.1%
O=C(Nc1nc2ccc(Cl)cc2s1)c1ccc(S(=O)(=O)N2CCCC2)cc1 | 5.99%
CCN(CC)c1ccc(C(=O)N2CCC(c3ccncc3)CC2)cc1 | -1.04%
O=C(NCC(c1ccc(Cl)cc1)N1CCCCC1)c1ccccc1 (stereo not drawn) | 11.3%
CCCOc1ccc(C(=O)N(Cc2cccs2)C2CCS(=O)(=O)C2)cc1 (stereo not drawn) | 16.5%
Cc1ccc(Cl)cc1N1CCN(C(=O)c2cn(C)c3ccc(S(=O)(=O)N4CCC(C)CC4)cc3c2=O)CC1 | 4.65%
COc1ccc(NCc2nc3ccccc3n2CCOc2ccc(C)cc2)cc1 | -8.44%
O=C(Nc1cccc(-c2cccc(F)c2)c1)C1CCN(Cc2ccco2)CC1 | active: 56.5%
Cc1ccc(CNC(=O)COCc2cc(-c3ccc4c(c3)OCO4)on2)cc1 | 0.788%
CCOc1ccc2cc(-c3nnc(Nc4ccccc4F)s3)c(=O)oc2c1 | 2.05%

Structure (SMILES) | inhibition
CCOc1ccc(S(=O)(=O)c2cn(Cc3ccc(C)cc3)c3ccc(OC)cc3c2=O)cc1 | -11.9%
O=C(NCc1cccc(Br)c1)c1ccc(-n2cnc3cccnc32)cc1 | 3.84%
Cc1ccc(-n2ncc3c(N4CCC(C)CC4)ncnc32)cc1C | -7.55%
Cc1cccc(-c2noc(CNC(=O)c3ccc(C)cc3C)n2)c1 | 4.08%
COc1ccc(C(C(=O)NCc2ccccc2)N(C(=O)Cn2nnc3ccccc32)c2ccc(F)cc2)cc1 (stereo not drawn) | 9.97%
Cc1ccc(NCc2nc3ccccc3n2CCOc2ccccc2C)cc1 | 0.786%
Nc1c(C(=O)Nc2ccccc2Cl)nnn1Cc1cccc(Cl)c1 | 5.22%
COc1cc(OC)cc(-c2nc3nc(C)c(CCC(=O)Nc4ccc(C)cc4)c(C)n3n2)c1 | -20.1%
CCNc1nc2c(c(=O)n(C)c(=O)n2C)n1CC(O)COc1ccccc1 (stereo not drawn) | -12%
Cc1c(CCNS(=O)(=O)c2ccccc2)sc2nc(-c3ccc(Cl)cc3)nn12 | 7.14%
Cc1cc2c(cc1S(=O)(=O)CCC(=O)Nc1ccc(OC(F)(F)F)cc1)OCC(=O)N2 | 25.9%
O=C(CC1N=C2c3ccccc3N=C(SCc3ccc(Cl)cc3)N2C1=O)NC1CCCCC1 (stereo not drawn) | -5.65%
Cc1[nH]c2ccccc2c1NC(=O)CN1CCN(C(=O)c2ccco2)CC1 | active: 61.1%
Cc1c2cnn(CC(=O)O)c(=O)c2c(C)n1Cc1cccc(Cl)c1 | -1.65%
COc1ccc(NC(=O)Nc2cccc(C)n2)c(OC)c1 | 5.43%
Cc1cc(C)c(Cn2c(C)c(CNCc3ccccc3C)c(C(=O)O)c2C)c(C)c1 | -1.6%
CCc1ccccc1NC(=O)C(=O)c1cc(C)n(-c2ccccc2F)c1C | 8.4%
CC1CCCCN1C(=O)CSc1nc2ccccc2nc1Cc1ccc(Cl)cc1 (stereo not drawn) | 8.88%
O=C(c1ccco1)N(Cc1cccnc1)c1nc2c(F)cccc2s1 | -22.3%
CCN1C(=O)c2ccccc2Sc2ccc(NC(=O)Nc3ccc(C(C)=O)cc3)cc21 | -1.1%
Cc1ccccc1CNCCCSc1nnnn1-c1ccccc1 | -7.81%
OCCC1CN(CCCc2ccccc2)CCN1Cc1ccccc1 (stereo not drawn) | active: 40.2%
Cc1ccc2oc(=O)c3cnn(CC(=O)Nc4ccc(Br)cc4C)c3c2c1 | 11%
CCN(Cc1nc(-c2ccc(OC)cc2)oc1C)S(=O)(=O)c1ccc(Cl)cc1 | -25.9%
COc1ccc(-c2nc(S(=O)(=O)c3ccccc3)c(N3CCCCC3)o2)cc1 | 4.6%

Structure (SMILES) | inhibition
Cc1ccc(C)c(OCCCn2c(-c3ccc(Cl)cc3)nc3ccccc3c2=O)c1 | -14.2%
Cc1c(Cl)cccc1NC(=O)Cc1ccc([N+](=O)[O-])cc1 | active: 44.8%
COc1ccc(N2CCN(C(=O)c3cccn4c(=O)c5ccc(Cl)cc5nc34)CC2)cc1 | -12.3%
Cc1cccc(NC(=O)c2ccc(F)c(S(=O)(=O)N(C)C3CCCCC3)c2)c1 | -4.38%
COc1ccc(NC(=O)C(C)n2nc(C)c3c(C)n(-c4ccccc4)nc3c2=O)cc1Cl (stereo not drawn) | -10.8%
CCOCCCNC(=O)C(c1ccc(Cl)cc1)N(Cc1ccc2c(c1)OCO2)C(=O)c1ccccc1O (stereo not drawn) | -3.29%
CC(=O)Nc1ccc(Nc2nc3ccc(C)cc3n3nnnc23)cc1 | -4.19%
O=C(CSC1=Nc2ccccc2C2=NC(CCC(=O)NC3CCCCC3)C(=O)N12)Nc1cccc(Cl)c1 (stereo not drawn) | 9.69%
CCOC(=O)C1CCC(CN(Cc2c(Cl)cccc2Cl)S(=O)(=O)c2ccc(F)c(C)c2)CC1 (stereo not drawn) | -17.6%
CCOC(=O)c1c(C)[nH]c(C)c1S(=O)(=O)N(C)CC(=O)Nc1cc(Cl)ccc1OC | 5.54%
COc1cccc(NC(=O)CCNS(=O)(=O)c2ccc3c(c2)CCCC(=O)N3)c1 | -17.8%
COc1ccc(NC(=O)Cn2c(=O)n(-c3ccccc3)c(=O)c3ccc(C(=O)NCc4ccc5c(c4)OCO5)cc32)cc1 | 2.64%
CC1(C)C(=O)N(CC(=O)Nc2ccc(OC(F)(F)F)cc2)c2ccccc21 | -27%
CCCCOc1ccc(-c2nc(-c3cccnc3)no2)cc1 | active: 34.4%
Oc1cccc(Nc2nc(-c3ccccc3)nc3ccccc23)c1 | -6.5%
CCCSc1ncc(Cl)c(C(=O)Nc2ccc(CC)cc2)n1 | 14.8%
CCN(CCCNC(=O)c1cc2cc3cc(OC)ccc3nc2s1)c1ccccc1 | 11.2%
Cc1ccc(CNC(=O)CSc2nc3ccsc3c(=O)n2-c2ccc(C(=O)O)cc2)cc1 | -10.4%
Cn1c(=O)c2c(SCC(=O)NCC3CCCO3)nc(-c3ccccc3F)nc2n(C)c1=O (stereo not drawn) | -3.45%
COc1cccc(/C=C(\C#N)c2nc3ccc(C)cc3[nH]2)c1 | 2.56%
CCOC(=O)c1ccc(NS(=O)(=O)c2cc3c(cc2C)n(C)c(=O)c(=O)n3C)cc1 | 23.2%
O=C(Cn1c(=O)n(-c2ccccc2)c(=O)c2ccc(C(=O)NCc3ccc4c(c3)OCO4)cc21)Nc1ccc(Br)cc1F | 17.3%
CCOc1ccc(NC(=O)CSc2oc(-c3cccs3)nc2S(=O)(=O)c2ccc(Cl)cc2)cc1 | -7.55%
CCOc1ccc(CNC(=O)c2cnc(SC)nc2CC)cc1 | 3.8%
CCCCSCCCNC(=O)CN1C(=O)COc2ccc(S(=O)(=O)N3CCCC3)cc21 | -11.1%

Structure (SMILES) | inhibition
COc1ccc(CNc2nc(-c3ccc(OC)c(OC)c3)cc(C(F)(F)F)n2)cc1 | -12.1%
CCOCCCNC(=O)N1CCN(S(=O)(=O)c2ccc3c(ccn3C)c2)CC1 | 7.12%
COc1ccc(-c2noc(-c3ccc(N4CCOCC4)c([N+](=O)[O-])c3)n2)cc1OC | 10.4%
Cc1ccc(CN2CCC(NC(=O)c3ccccc3)CC2)cc1 | active: 89.7%
Cc1ccc(S(=O)(=O)N(Cc2nc(-c3ccc(Cl)cc3)no2)C2CCCCC2)cc1 | -4.82%
O=S(=O)(Nc1c(F)cccc1F)c1ccc2c(c1)OCCO2 | 9.74%
COc1ccc(Cl)cc1C(=O)NNC(=S)NC(=O)c1ccc(F)c(F)c1 | active: 40.4%
Cc1ccc2oc(C(=O)Nc3c(C(=O)c4ccc(C)c(F)c4)oc4ccccc34)cc(=O)c2c1 | -9.01%
CCn1nnc2cc(C(=O)Nc3cccc(C(F)(F)F)c3)ccc21 | -8.63%
COc1ccc(C)cc1NC(=O)C(CCSC)NS(=O)(=O)c1ccc2c(c1)oc(=O)n2C (stereo not drawn) | -7.38%
CCOC(=O)N1CCc2c(sc3c2c(=O)n(Cc2ccccc2)c(=O)n3CC(=O)Nc2ccccc2F)C1 | -15.2%
CC(C)NC(=O)c1cnc2sc(N3CCCCCC3)nn2c1=O | 2.43%
CCOC(=O)c1c(C)[nH]c(CCC(=O)Nc2ccc(N(CC)CC)cc2C)c1C | 4.03%
COc1ccc(CN(C(=O)Nc2ccccc2)c2ccccn2)cc1OC | 5.61%
Cc1ccc(CCNC(=O)CCSCc2ccccc2F)cc1 | -7.32%
Cc1cccc(Cn2c(=O)n(CCc3ccccc3)c(=O)c3sc4ccccc4c32)c1 | 12.4%
CCOC(=O)c1cc(-c2ccccc2)nn1Cc1ccccc1 | 0.94%
O=C(CCOc1ccccc1)N(Cc1cccnc1)c1nc2c(Cl)cccc2s1 | 12.3%
CN1C2CCC1CC(OC(c1ccccc1)c1ccccc1)C2 (stereo not drawn) | active: 36.2%
Cc1ccc(C2c3[nH]c4ccccc4c3CCN2C(=O)c2ccc(N(C)C)cc2)cc1 (stereo not drawn) | 22.6%
COc1ccc(Br)cc1CN1CCCC(C(=O)N2CCCCCC2)C1 (stereo not drawn) | active: 32.4%
Cc1ccc(C)c(N2CCN(C(=O)C3CCN(Cc4nc(-c5cccc(Cl)c5)oc4C)CC3)CC2)c1 | 22%
O=C(c1cccs1)N(Cc1ccco1)Cc1cc2ccccc2[nH]c1=O | active: 59.8%
